In patent US8178490B2, “Polybasic bacterial efflux pump inhibitors and therapeutic uses thereof” (priority 2007, dated 2012):
The name of at least one read-out is uncertain.

Experiments:
[1] = test system: P. aeruginosa PAM1723, overexpressing the MexABOprM efflux pump; type: cell-based, Pseudomonas aeruginosa; settings: lowest inhibitor concentration giving antibacterial activity with levofloxacin at 1/8 of its MIC
Excerpt: (§1) EPI activity is defined as concentration of an EPI compound that is necessary to achieve ½ of a maximum theoretical effect in increase of antibiotic susceptibility due to efflux inhibition. The maximum theoretical effect, Emax, is defined as a ratio of antibacterial activity of antibiotics (minimal inhibitory concentration, MIC) of pump overexpressing vs. pump lacking strains. […] The strain PAM1723, overexpressing the MexABOprM efflux pump was used as a test strain. […] Azithromycin was used as test antibiotic to assess the EPI activity in Klebsiella pneumoniae. The strain KPM1004 overexpressing the AcrABTolC efflux pump was used as a test strain. […] Thus, EPI activity, that is assessed in K. pneumoniae, is a concentration of an EPI compound that is necessary to increase susceptibility to azithromicin of KPM1004 sixteen fold.
(§2) The EPI activity of the test compounds was assessed by the checkerboard assay (Antimicrobial Combinations, Antibiotics in Laboratory Medicine, Ed. Victor Lorian, M.D., Fourth edition, 1996, pp 333338, which is incorporated herein by reference in its entirety) using a broth microdilution method performed as recommended by the NCCLS (National Committee for Clinical Laboratory Standards (NCCLS), 1997, Methods for Dilution of Antimicrobial Susceptibility Tests for Bacteria That Grow Aerobically, Fourth Edition; Approved Standard. NCCLS Document M7A4, Vol 17 No. 2, which is incorporated herein by reference in its entirety). […] All EPI compounds were readily soluble in water and stock solutions were prepared at a final concentration of 10 mg/ml. Stock solutions were further diluted, according to the needs of the particular assay, in Mueller Hinton Broth (MHB). Stock solution was stored at −80° C. The checkerboard assay was performed in microtiter plates. […] EPIs were diluted in the axis, each row containing a single concentration of an EPI. […] The assay was performed in MHB with a final bacterial (PAM1723 or […]) inoculum of 5 times 10^5 CFU/ml (from an early log phase culture). Microtiter plates were incubated during 20 h at 35° C. and were read using a microtiter plate reader (Molecular Devices) at 650 nm as well as visual observation using a microtiter plate reading mirror.
(§3) Azithromycin potentiation activities of selected inhibitors for K. pneumoniae are reported as MPC16 values.

[2] = test system: Klebsiella pneumoniae KPM1004 overexpressing the AcrABTolC efflux pump; type: cell-based; settings: lowest inhibitor concentration giving antibacterial activity with azithromycin at 1/16 of its MIC; K. pneumoniae KPM1004
Excerpt: as §1, §2, §3

NCCN(CCN)C(=O)C[C@H](N)C(=O)N[C@@H](CCc1ccccc1)C(=O)Nc1cnc2ccccc2c1 [Compound 2, 3-[(1S)-2-[bis(2-azaniumylethyl)carbamoyl]-1-{[(1S)-1-carbamoyl-3-phenylpropyl]carbamoyl}ethan-1-aminium]quinolin-1-ium tetrachloride]
MPC8 (μg/mL) (Levofloxacin, PAM1723) [1]: 1.25 µg/mL | MPC16 (μg/mL) Azithromycin, KPM1004) [2]: 2.5 µg/mL

N=C(N)NCCN(CCC[C@H](N)C(=O)N[C@H](CCc1ccccc1)C(=O)Nc1cnc2ccccc2c1)CCNC(=N)N [Compound 6, 3-[(1S)-4-[bis({2-[(azaniumylmethanimidoyl)amino]ethyl})amino]-1-{[(1R)-1-carbamoyl-3-phenylpropyl]carbamoyl}butan-1-aminium]quinolin-1-ium tetrachloride]
MPC8 (μg/mL) (Levofloxacin, PAM1723) [1]: 2.5 µg/mL | MPC16 (μg/mL) Azithromycin, KPM1004) [2]: 1.25 µg/mL

Cl.Cl.Cl.NCCN(CCN)C(=O)C[C@H](N)C(=O)N[C@@H](Cc1ccccc1)C(=O)Nc1ccc2ccccc2c1 [Compound 11, (1S)-2-[bis(2-azaniumylethyl)carbamoyl]-1-{[(1S)-1-[(naphthalen-2-yl)carbamoyl]-2-phenylethyl]carbamoyl}ethan-1-aminium trichloride]
MPC8 (μg/mL) (Levofloxacin, PAM1723) [1]: 2.5 µg/mL

NCCN(CCN)C(=O)C[C@H](N)C(=O)N[C@@H](CC1CCCCC1)C(=O)Nc1cnc2ccccc2c1 [Compound 14, 3-[(1S)-2-[bis(2-azaniumylethyl)carbamoyl]-1-{[(1S)-1-carbamoyl-2-cyclohexylethyl]carbamoyl}ethan-1-aminium]quinolin-1-ium tetrachloride]
MPC8 (μg/mL) (Levofloxacin, PAM1723) [1]: 2.5 µg/mL

NCCN(CCN)C(=O)CC[C@H](N)C(=O)NC(CN1CCCCC1)C(=O)Nc1cnc2ccccc2c1 (stereo partly drawn) [Compound 20, 3-[(1S)-3-[bis(2-aminioethyl)carbamoyl]-1-{[1-carbamoyl-2-(piperidin-1-ium-1-yl)ethyl]carbamoyl}propan-1-aminium]quinolin-1-ium pentachloride]
MPC8 (μg/mL) (Levofloxacin, PAM1723) [1]: 10 µg/mL

NCCN(CCN)C(=O)C(N)C(=O)N[C@@H](Cc1ccc(C(F)(F)F)cc1)C(=O)Nc1cnc2ccccc2c1 (stereo partly drawn) [Compound 21, 3-{[bis(2-aminioethyl)carbamoyl]({[(1S)-1-carbamoyl-2-[4-(trifluoromethyl)phenyl]ethyl]carbamoyl})methanaminium}quinolin-1-ium tetrachloride]
MPC8 (μg/mL) (Levofloxacin, PAM1723) [1]: 2.5 µg/mL

Cl.Cl.Cl.Cl.NCC(CN)C[C@H](N)C(=O)N[C@H](Cc1ccc(C(F)(F)F)cc1)C(=O)Nc1cnc2ccccc2c1 [Compound 22, 3-[(1S)-3-(azaniumylmethyl)-1-{[(1R)-1-carbamoyl-2-[4-(trifluoromethyl)phenyl]ethyl]carbamoyl}butane-1,4-bis(aminium)]quinolin-1-ium tetrachloride]
MPC8 (μg/mL) (Levofloxacin, PAM1723) [1]: 0.3 µg/mL

NCCN(CCN)C(=O)C[C@H](N)C(=O)N[C@@H](Cc1ccc(C(F)(F)F)cc1)C(=O)Nc1cnc2ccccc2c1 [Compound 27, 3-[(1S)-2-[bis(2-azaniumylethyl)carbamoyl]-1-{[(1S)-1-carbamoyl-2-[4-(trifluoromethyl)phenyl]ethyl]carbamoyl}ethan-1-aminium]quinolin-1-ium tetrachloride]
MPC8 (μg/mL) (Levofloxacin, PAM1723) [1]: 0.6 µg/mL

Cl.Cl.Cl.Cl.NCCN(CCN)C(=O)CC[C@H](N)C(=O)N[C@H](Cc1ccc(OC(F)(F)F)cc1)C(=O)Nc1cnc2ccccc2c1 [Compound 31, 3-[(1S)-3-[bis(2-azaniumylethyl)carbamoyl]-1-{[(1R)-1-carbamoyl-2-[4-(trifluoromethoxy)phenyl]ethyl]carbamoyl}propan-1-aminium]quinolin-1-ium tetrachloride]
MPC8 (μg/mL) (Levofloxacin, PAM1723) [1]: 0.3 µg/mL

Cl.Cl.Cl.Cl.NCCN(CCN)C(=O)CC[C@H](N)C(=O)N[C@H](Cc1ccc(OC(F)(F)F)cc1)C(=O)Nc1cc2ccccc2nn1 [Compound 32, 3-[(1S)-3-[bis(2-azaniumylethyl)carbamoyl]-1-{[(1R)-1-carbamoyl-2-[4-(trifluoromethoxy)phenyl]ethyl]carbamoyl}propan-1-aminium]cinnolin-1-ium tetrachloride]
MPC8 (μg/mL) (Levofloxacin, PAM1723) [1]: 1.25 µg/mL

Cl.Cl.Cl.Cl.NCCN(CCN)C(=O)CC[C@@H](N)C(=O)N[C@H](Cc1ccc(C(F)(F)F)cc1)C(=O)Nc1cnc2ccccc2c1 [Compound 38, 3-[(1R)-3-[bis(2-azaniumylethyl)carbamoyl]-1-{[(1R)-1-carbamoyl-2-[4-(trifluoromethyl)phenyl]ethyl]carbamoyl}propan-1-aminium]quinolin-1-ium tetrachloride]
MPC8 (μg/mL) (Levofloxacin, PAM1723) [1]: 0.3 µg/mL

Cl.Cl.Cl.NCCN(CCN)C(=O)C[C@H](N)C(=O)N[C@@H](CCc1ccccc1)C(=O)NC12CC3CC(CC(C3)C1)C2 [Compound 39, (1S)-1-{[(1S)-1-[(adamantan-1-yl)carbamoyl]-3-phenylpropyl]carbamoyl}-2-[bis(2-azaniumylethyl)carbamoyl]ethan-1-aminium trichloride]
MPC8 (μg/mL) (Levofloxacin, PAM1723) [1]: 10 µg/mL

NCCN(CCN)C(=O)C[C@@H](N)C(=O)N[C@H](Cc1ccc(C(F)(F)F)cc1)C(=O)Nc1cnc2ccccc2c1 [Compound 42, 3-[(1R)-2-[bis(2-azaniumylethyl)carbamoyl]-1-{[(1R)-1-carbamoyl-2-[4-(trifluoromethyl)phenyl]ethyl]carbamoyl}ethan-1-aminium]quinolin-1-ium tetrachloride]
MPC8 (μg/mL) (Levofloxacin, PAM1723) [1]: 0.3 µg/mL

NCCN(CCN)C(=O)NCCC[C@H](N)C(=O)N[C@H](CCc1ccccc1)C(=O)Nc1cnc2ccccc2c1 [Compound 43]
MPC8 (μg/mL) (Levofloxacin, PAM1723) [1]: 0.6 µg/mL

NCCN(CCN)C(=O)C[C@@H](N)C(=O)N[C@H](CCc1ccccc1)C(=O)Nc1cnc2ccccc2c1 [Compound 44, 3-[(1R)-2-[bis(2-azaniumylethyl)carbamoyl]-1-{[(1R)-1-carbamoyl-3-phenylpropyl]carbamoyl}ethan-1-aminium]quinolin-1-ium tetrachloride]
MPC8 (μg/mL) (Levofloxacin, PAM1723) [1]: 0.6 µg/mL

NCCN(CCN)C(=O)C[C@H](N)C(=O)N[C@H](CCc1ccc(C(F)(F)F)cc1)C(=O)Nc1ccc2ncccc2c1 [Compound 45, 6-[(1S)-2-[bis(2-azaniumylethyl)carbamoyl]-1-{[(1R)-1-carbamoyl-3-[4-(trifluoromethyl)phenyl]propyl]carbamoyl}ethan-1-aminium]quinolin-1-ium tetrachloride]
MPC8 (μg/mL) (Levofloxacin, PAM1723) [1]: 0.6 µg/mL

Cl.Cl.Cl.Cl.NCCN(CCN)C(=O)CC[C@H](N)C(=O)N[C@H](CCc1ccccc1)C(=O)Nc1cnc2ccccc2c1 [Compound 47, 3-[(1S)-3-[bis(2-azaniumylethyl)carbamoyl]-1-{[(1R)-1-carbamoyl-3-phenylpropyl]carbamoyl}propan-1-aminium]quinolin-1-ium tetrachloride]
MPC8 (μg/mL) (Levofloxacin, PAM1723) [1]: 0.6 µg/mL

Cl.Cl.Cl.Cl.NCCN(CCN)C(=O)C[C@H](N)C(=O)N[C@H](CCc1ccccc1)C(=O)Nc1cnc2ccccc2c1 [Compound 48, 3-[(1S)-2-[bis(2-azaniumylethyl)carbamoyl]-1-{[(1R)-1-carbamoyl-3-phenylpropyl]carbamoyl}ethan-1-aminium]quinolin-1-ium tetrachloride]
MPC8 (μg/mL) (Levofloxacin, PAM1723) [1]: 1.25 µg/mL

NCCN(CCN)C(=O)C[C@H](N)C(=O)N[C@@H](CCc1ccccc1)C(=O)Nc1ccnc2cc(C(F)(F)F)ccc12 [Compound 56]
MPC8 (μg/mL) (Levofloxacin, PAM1723) [1]: 1.25 µg/mL

NCCN(CCN)C(=O)C[C@H](N)C(=O)N[C@@H](CCc1ccccc1)C(=O)Nc1ccc(-c2ccccc2)cn1 [Compound 57]
MPC8 (μg/mL) (Levofloxacin, PAM1723) [1]: 1.25 µg/mL

CCCCc1ccc(NC(=O)[C@H](CCc2ccccc2)NC(=O)[C@@H](N)CC(=O)N(CCN)CCN)cc1 [Compound 83]
MPC8 (μg/mL) (Levofloxacin, PAM1723) [1]: 0.63 µg/mL

NCCN(CCN)C(=O)C[C@H](N)C(=O)N[C@@H](CCc1ccccc1)C(=O)NCc1ccc(-c2ccccc2)cc1 [Compound 107]
MPC8 (μg/mL) (Levofloxacin, PAM1723) [1]: 2.5 µg/mL

NCCN(CCN)C(=O)C[C@H](N)C(=O)N[C@@H](CCc1ccccc1)C(=O)NCc1csc(-c2cccc(Cl)c2)n1 [Compound 138]
MPC8 (μg/mL) (Levofloxacin, PAM1723) [1]: 2.5 µg/mL

CCOc1c(F)cc(NC(=O)[C@H](CCc2ccccc2)NC(=O)[C@@H](N)CC(=O)N(CCN)CCN)cc1F.Cl.Cl.Cl [Compound 352, (1S)-2-[bis(2-azaniumylethyl)carbamoyl]-1-{[(1S)-1-[(4-ethoxy-3,5-difluorophenyl)carbamoyl]-3-phenylpropyl]carbamoyl}ethan-1-aminium trichloride]
MPC8 (μg/mL) (Levofloxacin, PAM1723) [1]: 1.25 µg/mL
